# In PubChem BioAssay AID588855 (National Center for Advancing Translational Sciences (NCATS), 2011):
# The whole screen tested about 410,000 compounds, of which about 5,000 (1.2%) were called active. The inconclusive results got no clear call from the source; some entries with a clear call stand among them for comparison. Calls come from the whole dose curve; as a rule, active = well fitted inhibition curve with a large enough effect; inconclusive = small, poorly fitted or top-dose-only effect; inactive = no such curve, though single readings can be large or run the other way. Potencies beside an inconclusive call are fits to weak or partial responses and may not hold up.
# Assay: qHTS for Inhibitors of TGF-b; note: nearly all actives have a fitted effect of over 65% in size
# Conditions: HepG2 CAGA-GFP TGF-b/SMAD3 reporter, GFP fluorescence, 18 h, TGF-beta stimulated, 500 pg/mL final; series mostly up to 46.1 µM
# How it was run: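 First, reporter cells (HEPG2 CAGA-GFP) rested 2 h at 37 degrees C. Next, compounds were pinned in and TGF-beta added to 500 pg/mL final. After 18 h, GFP was imaged per cell and summed per well.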
# Potency is the fitted concentration of half-maximal effect; tags give direction and shape of the fitted curve.
row,Compound,Potency
1,O=C(CC(=O)c1ccccc1O)c1cccc(F)c1,"inconclusive: 35.5 µM [inhibitor, single point]"
2,CCN(CC)S(=O)(=O)c1ccc2c(c1)N(CC(=O)N(C)Cc1ccccc1)C(=O)CO2,inactive
3,Cc1ccc(Cn2cc(CCC(=O)NCc3ccccc3F)c3ccccc32)cc1,inactive
4,COc1cccc(/C=C/C(=O)c2ccc(NC3=NCCCS3)cc2)c1,"inconclusive: 25.1 µM [inhibitor, single point]"
5,O=C1c2cccc3c(O)ccc(c23)C(=O)N1Cc1ccccc1,inactive
6,CC1(c2ccc(OC(F)F)cc2)NC(=O)N(CC(=O)N2CCN(C(=O)c3ccco3)CC2)C1=O (centres undefined),inactive
7,O=C(COc1ccccc1)NC(=S)Nc1cccc2c(O)cccc12,"inconclusive: 35.5 µM [inhibitor, single point]"
8,Cc1ccc(-c2cc(C(=O)N3CC4(C)CC3CC(C)(C)C4)no2)cc1 (centres undefined),inactive
9,CC(C)(C)c1ccc(C2NC(=O)c3n[nH]c(-c4cccs4)c32)cc1 (centres undefined),"inconclusive: 15.8 µM [inhibitor, partial curve, poor fit]"
10,O=S(=O)(c1cc(Cl)cc(Cl)c1)N1CCC2CC1c1cc(Cl)ccc12 (centres undefined),"inconclusive: 11.2 µM [inhibitor, single point]"
11,CCCCn1c(Nc2ccccc2)nc2ccccc21,inactive
12,C(=N\n1cnnc1)/c1cccc(OCCOc2ccccc2)c1,"inconclusive: 5.62 µM [inhibitor, single point]"
13,CCCC(c1nnnn1Cc1ccco1)N1CCN(c2cc(Cl)ccc2C)CC1 (centres undefined),inactive
14,CCC(=O)Oc1cccc(C(=O)Nc2cccc(NC(=O)c3ccco3)c2)c1,inactive
15,COc1ccc(C)cc1NC(=O)C(=O)NCC1(c2ccccc2)CCCC1,inactive
16,O=C(NCCCn1ccnc1)c1cccc(Cl)c1,"inconclusive: 0.891 µM [inhibitor, full curve]"
17,N#C/C(=C(/O)c1ccc([N+](=O)[O-])o1)c1nc2ccccc2[nH]1,"inconclusive: 1 µM [inhibitor, full curve]"
18,CC1CCN(CC(=O)Nc2nc(-c3ccccc3)cs2)CC1,"inconclusive: 35.5 µM [inhibitor, single point]"
19,Cc1ccc(NC(=O)Nc2ccno2)cc1,inactive
20,Cc1ccc(C(=O)c2cc([N+](=O)[O-])ccc2N2CCCCC2)c(C)c1,"inconclusive: 1.12 µM [inhibitor, full curve, poor fit]"
21,COc1ccc(N(CC(=O)NCCc2cccc(C)c2)S(=O)(=O)c2c(C)noc2C)cc1,"inconclusive: 7.08 µM [inhibitor, partial curve]"
22,CCOC(=O)C1CCCN(S(=O)(=O)c2cc(OCC(=O)NC3CCCCC3)c(C)cc2Cl)C1 (centres undefined),inactive
23,COc1cc(OC)cc(-c2c(-c3cccs3)c3cc(-c4ccc5c(c4)OCCO5)ccc3n2C)c1,inactive

row,Compound,Potency
1,CCC(C)(C)NC(=O)c1ccc(S(=O)(=O)N(C)c2ccccc2OC)cc1,inactive
2,CCOC(=O)C1(Cc2cccc(OC)c2)CCCN(C(=O)CSC)C1 (centres undefined),inactive
3,CCc1nc(Nc2ccncc2)c2oc3ccccc3c2n1,"inconclusive: 8.91 µM [inhibitor, partial curve]"
4,O=C(CCC1CCN(C(=O)CC2=CCCCC2)CC1)NCc1ccc(F)cc1,inactive
5,O=C(Nc1ccc(F)cc1)c1nn(-c2ccccc2)c(=O)cc1Cl,"inconclusive: 35.5 µM [inhibitor, single point]"
6,COC(=O)/C=C/c1cccc([C@H]2[C@@H]3C=CC[C@@H](C)[C@@H]3C(=O)N2Cc2ccccc2)c1,"inconclusive: 22.4 µM [inhibitor, single point]"
7,COc1ccc(/C=C2/CCCc3ccccc3C2=O)cc1,"inconclusive: 31.6 µM [inhibitor, single point]"
8,CCOC(=O)c1nc(C)nc(Sc2n[nH]c(-c3ccc(C(C)(C)C)cc3)n2)c1C,"inconclusive: 35.5 µM [inhibitor, single point]"
9,CC(C)C(=O)NC(=S)Nc1ccc(S(=O)(=O)N(C)Cc2ccccc2)cc1,"inconclusive: 35.5 µM [inhibitor, partial curve, poor fit]"
10,CCCn1c(N)c(N2CCCCC2)c(=O)n(CC(=O)Nc2cccc(S(=O)(=O)N(C)C)c2)c1=O,inactive
11,CCOc1ccccc1CNC(=O)CCc1cn(Cc2ccc(Cl)cc2)c2ccccc12,inactive
12,N=c1sccn1CC(=O)N1N=C(c2ccc(Cl)cc2)CC1c1ccco1 (centres undefined),"inconclusive: 35.5 µM [inhibitor, single point]"
13,C=CCOC(=O)C1=C[C@H](c2coc3ccccc3c2=O)[C@@H](CCCO)[C@H](OCC)O1,"inconclusive: 3.55 µM [inhibitor, full curve]"
14,CCCCC12CN3CC(C)(CN(C1)C31C(=O)N(C)c3ccc(C)cc31)C2=O (centres undefined),inactive
15,CCSc1ccc([C@@H]2[C@H]3C(=O)N(CC)C(=O)[C@H]3[C@]3(C(=O)OC)CCCCN23)cc1,"inconclusive: 3.98 µM [inhibitor, full curve, poor fit]"
16,COc1c(N2CCN(C(=S)NCc3ccccc3)C(C)C2)c(F)cc2c(=O)c(C(=O)O)cn(C3CC3)c12 (centres undefined),"inconclusive: 14.1 µM [inhibitor, single point]"
17,CCCCNC(=O)CC(=O)Nc1ccccc1C(=O)O,inactive
18,Cc1n[nH]c(C)c1S(=O)(=O)N(CC(=O)NCc1ccccc1Cl)c1ccc(C(C)C)cc1,"inconclusive: 35.5 µM [inhibitor, partial curve, poor fit]"
19,CCN1C[C@@H]2[C@@H]3C(=O)N(Cc4ccccc4)C(=O)[C@@H]3[C@](Cc3ccccc3)(C1=O)N2C(=O)c1ccc(C)cc1,"inconclusive: 35.5 µM [inhibitor, partial curve, poor fit]"
20,CC(C)(C)c1ccc(C(=O)Nc2cccnc2)cc1,inactive
21,CCn1c(SCC(=O)c2ccc(Cl)cc2)nnc1C(C)C,"inconclusive: 10 µM [inhibitor, single point]"
22,CC(C)c1ccc2c(c1)C1(NN=C(c3ccccc3)S1)C(=O)N2 (centres undefined),"inconclusive: 8.91 µM [inhibitor, partial curve, poor fit]"
23,COc1cc(/C=N/NC(=S)Nc2cccc(C(=O)O)c2)cc(OC)c1OC,"inconclusive: 35.5 µM [inhibitor, single point]"

row,Compound,Potency
1,CC(C)Oc1ccc(CNC(=O)CCn2c(=O)c3cccn3c3ccc(F)cc32)cc1,"inconclusive: 6.31 µM [inhibitor, single point]"
2,CCN=C1S/C(=C\c2ccc(-c3cccc(C(=O)O)c3)o2)C(=O)N1CC,inactive
3,COCC1=C(C(=O)OC(C)OC(=O)OC(C)C)N2C(=O)[C@@H](NC(=O)/C(=N\OC)c3csc(N)n3)[C@H]2SC1 (some centres undefined),inactive
4,COc1ccc([N+](=O)[O-])cc1NCC(=O)Nc1cc(S(=O)(=O)N2CCCCC2)ccc1C,"inconclusive: 3.16 µM [inhibitor, single point]"
5,CN(C)C(=O)OCc1c(-c2ccccc2)ncc2ccccc12,"inconclusive: 12.6 µM [inhibitor, partial curve, poor fit]"
6,CSc1ccc(Cn2c(C)c(C(=O)NCc3ccccc3C(F)(F)F)sc2=O)cc1,"inconclusive: 35.5 µM [inhibitor, single point]"
7,CCOc1ccc(Cn2c(O)cc(=O)[nH]c2=O)cc1,"inconclusive: 5.62 µM [inhibitor, single point]"
8,Cc1ccc(N2C(=O)NC(C(F)(F)F)(C(F)(F)F)C3=C2CC(C)(C)CC3=O)cc1,"inconclusive: 22.4 µM [inhibitor, single point]"
9,O=C(Nc1ccc(Cl)c(Cl)c1)Nc1ccon1,"inconclusive: 35.5 µM [inhibitor, single point]"
10,CCC(C)NC(=O)CSc1nc2scc(-c3ccccc3)c2c(=O)[nH]1 (centres undefined),"inconclusive: 0.447 µM [inhibitor, full curve, poor fit]"
11,Cc1nc(SC(C(=O)c2ccccc2)c2ccccc2)nc2ccccc12 (centres undefined),"inconclusive: 3.55 µM [inhibitor, single point]"
12,Cc1ccc(OCC(=O)Nc2cccc(-c3nnc(-c4ccccc4)o3)c2)c(C)c1,inactive
13,Cc1ccc2sc(N(CCCN(C)C)C(=O)CN3C(=O)c4ccccc4C3=O)nc2c1C,"inconclusive: 15.8 µM [inhibitor, single point]"
14,CCCC(=O)Nc1nc(-c2ccccc2)ns1,"inconclusive: 7.08 µM [inhibitor, full curve]"
15,CCN1CCN(c2ccc(S(=O)(=O)N3CCOCC3)cc2NC(=O)/C=C/c2ccc([N+](=O)[O-])cc2)CC1,inactive
16,O=C1C(=O)c2cccnc2-c2ncccc21,active: 1.41 µM
17,CC/C(=N\NC(=O)C(N)=O)c1ccccc1O,"inconclusive: 0.1 µM [inhibitor, full curve, poor fit]"
18,COC(=O)CN1C(CN2CCOCC2)=Nc2ccc(Br)cc2C1c1ccccc1 (centres undefined),"inconclusive: 3.16 µM [inhibitor, partial curve, poor fit]"
19,Cc1ccc(C(=O)CC(=O)COc2ccc(Cl)cc2C)cc1,"inconclusive: 14.1 µM [inhibitor, single point]"
20,CC(=O)N1CCc2c(sc(NC(=O)c3ccc(S(=O)(=O)N(C)C)cc3)c2C#N)C1,inactive
21,Cc1ccsc1C(=O)NNC(=O)C1CCCCC1C(=O)O (centres undefined),inactive
22,Cc1ccc(C)c(OCCn2cc(/C=C(/C#N)C(=O)NCC3CCCO3)c3ccccc32)c1 (centres undefined),inactive
23,Nc1nonc1C(=O)N/N=C/c1cc2c(cc1Br)OCO2,"inconclusive: 3.55 µM [inhibitor, single point]"
